Reference: PubChem BioAssay AID662 (National Center for Advancing Translational Sciences (NCATS), 2007)
Among all 71,000 compounds or so, about 1,800 (2.5%) were called active. This list was built around the results that the source calls inconclusive (neither active nor inactive); the mix of calls is not that of the screen. Calls follow the shape of the dose curve; as a rule, active = well fitted activation curve with a large enough effect in the signal ratio, with a control signal flat (not every such curve was filed as active); inconclusive = small, poorly fitted or top-dose-only effect, or effect the other way, or a change in a side signal; inactive = flat fitted curve, though single readings scatter; the % refers to the signal ratio. Where the call is inconclusive, the potency comes from a doubtful curve fit.

test: Cell signaling CRE-BLA (Fsk stim); conditions: CHO CRE-bla reporter (cAMP response element driving beta-lactamase), forskolin EC10, beta-lactamase ratio; activity change, negative = inhibition: at 38.2 µM (top of the series) unless noted; as to activity change, negative = inhibition: % of control where 0% means no effect
How it was run: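 Reporter-gene assay: CHO cells with beta-lactamase behind cAMP responsive elements, co-treated with compound and EC10 NKH 477 for 3 hours at 37 degrees Celsius. Activity came from the 460/530 nm CCF4 emission ratio.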
Potency is read from the fitted curve at half-maximal effect; tags tell the direction and shape of the fitted curve.

Compound	activity change, negative = inhibition	Potency
CCc1cc(C(=O)Cc2cnn(-c3ccccc3)c2)c(O)cc1O	inactive: -6.05%	
CCCn1c(=NC(=O)c2ccc3c(c2)OCO3)c(C#N)cc2c(=O)n3cccc(C)c3nc21	inactive: -1.93%	
CCN(CC)C(=O)C1CC(=O)N(c2ccc(F)c(Cl)c2)C1 (configuration not stated)	inactive: 0.438%	
O=C(CCSc1ccccc1)Nc1ccc(S(=O)(=O)N2CCOCC2)cc1	inconclusive: -12.5%	
O=C(NC1CCCC1)c1ccc(COCC(F)(F)C(F)F)o1	inactive: 1.4%	
CCN(CC)CCn1cnc2c([nH]c3cccc(OC)c32)c1=O	inconclusive: 0.6%	
COc1ccc(-c2nc3cnc(Oc4cccc(Cl)c4)nc3n(C3CC3)c2=O)cc1		active: 3.16 µM
CCc1nc(C)cn1S(=O)(=O)c1cc(Br)ccc1OC		inconclusive: 10 µM [rising, partial curve]
Cc1cc(-n2c(=O)c(C#N)cc3c(=O)n4cccc(C)c4nc32)no1		active: 3.16 µM
O=C1Cn2c(nc3ccccc32)N1c1ccccc1F	inconclusive: -10.6%	
CCc1c(O)nc(SCC(=O)Nc2ccccc2)n(-c2ccccc2)c1=O		inconclusive: 5.01 µM [rising, single point]
CC1CCN(S(=O)(=O)c2ccc3c(c2)c(=O)c(C(=O)NC2CCCC2)cn3C)CC1	inconclusive: 9.21%	
Nc1nc(Cc2ccccc2)nc(Cc2ccccc2)c1-c1ccccc1	inactive: -6.9% [at 7.6 µM]	
CCOC(=O)CSc1nnnn1-c1cc(OC)c(Cl)cc1OC	inconclusive: -0.783%	
CC(C)C(NS(=O)(=O)c1cccs1)C(=O)N1CCc2ccccc2C1 (configuration not stated)	inconclusive: -23.7%	
CCCCn1cnc2c1c(=O)n(C)c(=O)n2C		inconclusive: 12.6 µM [rising, single point]
O=C(CN1CCSCC1)N1CCc2[nH]c3ccc(Br)cc3c2C1	inconclusive: -5.15%	
CC(=O)OCC(=O)c1ccc2ccn(C(C)=O)c2c1	inactive: 0.857%	
COc1ccc(S(=O)(=O)NCCC(C)C)cc1OC	inactive: 2.3%	
CSc1cccc(NC(=O)CN2C(=O)c3ccccc3S2(=O)=O)c1	inactive: -4.3%	
N#CC1=C(N)C(C#N)(C#N)[C@H](c2ccoc2)[C@H]2CN(Cc3ccccc3)CC=C12		active: 10 µM
CCNc1ncc2nc(-c3cccs3)c(=O)n(Cc3cccs3)c2n1		inconclusive: 0.2 µM [rising, full curve]
COCCNC(=O)c1cn(C)c(=O)c2cc(OC)c(OC)cc12		inconclusive: 10 µM [rising, single point]
O=c1oc2ccc(Br)cc2cc1-c1nc2ccccc2o1		inconclusive: 25.1 µM [falling, partial curve]
CC1Cc2ccccc2N1C(=O)CSCC(=O)O (configuration not stated)	inconclusive: 0.913%	
COCn1c(-c2ccccc2)nc2ccccc21	inconclusive: 33.9% [at 7.6 µM]	

Compound	activity change, negative = inhibition	Potency
CCC(C)NS(=O)(=O)c1ccc(S(=O)(=O)Nc2cc3c(cc2C(C)=O)OCO3)cc1 (configuration not stated)	inactive: 5.81%	
CC1CCN(CCCNC(=O)c2ccc(CS(=O)(=O)Cc3ccccc3F)o2)CC1	inconclusive: 19.3%	
Cc1ccc(-c2nnc(SCC(=O)N3CCCC3)o2)cc1C	inconclusive: -1.89%	
CCOC(=O)c1c(C)c(C(=O)NCc2cccs2)c(C)n1CC		inconclusive: 10 µM [rising, partial curve]
O=C(O)[C@@H]1[C@@H]2C[C@H]([C@@H](Br)[C@H]2N2C(=O)CCC2=O)[C@@H]1C(=O)O	inactive: 10.5% [at 7.6 µM]	
Cc1cc(C(F)(F)F)n2ncc(C(=O)O)c2n1	inactive: -5.51%	
CCOC(=O)c1c(N)nn(C(=O)C(C)(C)C)c1-c1ccccc1		inconclusive: 3.16 µM [rising, single point]
C=CCOC(=O)C1=C(C)Nc2nc3ccccc3n2C1c1ccncc1 (configuration not stated)	inconclusive: 32%	
COc1ccc(C(=O)Nc2oc(-c3ccccc3)c(-c3ccccc3)c2C#N)cc1OC		inconclusive: 5.01 µM [rising, partial curve]
CCCn1nc(C(=O)NCc2ccccn2)c2ccccc2c1=O		inconclusive: 12.6 µM [rising, partial curve]
O=C(CN1C(=O)C2(OCCO2)c2ccccc21)c1ccc(F)cc1	inactive: -18.8%	
CN(CC(=O)NCCN1CCN(Cc2ccccc2)CC1)S(=O)(=O)c1cccc2nsnc12	inconclusive: 0.0146%	
Cc1ccc2[nH]c(-c3ccccc3)c(CN3CCN(C)CC3)c(=O)c2c1	inconclusive: 5.35% [at 7.6 µM]	
O=C(Nc1cccnc1)c1cn(-c2ccccc2)nc1-c1cccs1		inconclusive: 2.51 µM [falling, full curve, poor fit]
CCCCCc1nnc(NC(=O)Cc2cccs2)s1	inactive: -1.98%	
Cc1cc(C(=O)Nc2sc3c(c2C#N)CCCC3)no1		inconclusive: 7.94 µM [rising, partial curve]
NS(=O)(=O)c1ccc(Nc2nc(-c3ccc(O)cc3)cs2)cc1		inconclusive: 12.6 µM [falling, partial curve, poor fit]
N#CC1=C(N)Oc2n[nH]c(-c3ccc(F)cc3)c2C1c1ccncc1 (configuration not stated)	inactive: -9.52%	
CCOC(=O)C1CCN(C(c2cc3c(C)ccc(C)c3[nH]c2=O)c2nnnn2C2CCCCC2)CC1 (configuration not stated)	inactive: 2.8%	
Cc1ccc(-n2nnc3c(=O)n(CC(=O)OCc4ccccc4)cnc32)cc1	inactive: 12.5%	
COC(=O)[C@@H](NC(=O)NCc1ccccc1Cl)C(C)C	inconclusive: -0.817%	
COc1c(C)cccc1C(=O)Nc1cc(-c2nn3c(C)nnc3s2)ccc1C		active: 2.51 µM
N#CCCn1c(SCC(=O)c2c[nH]c3ccccc23)nc2ccccc21		inconclusive: 3.98 µM [rising, single point]
CCOc1ncccc1C(=O)Nc1cccc(C(=O)Nc2cccc(S(=O)(=O)CCO)c2)c1		inconclusive: 12.6 µM [rising, partial curve]
Cc1ccc(-c2cc(C(F)F)nc(NCC3CCCO3)n2)cc1 (configuration not stated)		inconclusive: 12.6 µM [rising, partial curve]
CCCCNc1nc2ccccc2n1CC(=O)N1CCc2ccccc2C1		inconclusive: 0.126 µM [falling, partial curve, poor fit]
